# In all, about 43,000 compounds went through this assay and about 830 (1.9%) were called active. Inconclusive means that the source gave no clear call. Such entries were picked first, then a sample of the others. How the source made its calls: active means clear falling dose curves in both reporters; inconclusive means both reporters move, but less clearly or upward; inactive means either reporter flat; the % is the NLuc reporter signal. No potency is given beside an inconclusive call; the fits are too rough.
# Assay: Cell-based coincidence reporter assay to measure PMP22 gene transcription in S16 Pmp22-F2sN cells - Primary screen
# Conditions: S16 Pmp22-F2sN Schwann cells (luciferase reporters placed in the Pmp22 gene), FLuc/NLuc coincidence luminescence, 24 h; measured here: NLuc reporter readout, at 57.5 µM (top of the series)
# In short: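 S16(c9) Schwann cells with FLuc/NLuc coincidence reporter in the Pmp22 3' UTR; compounds pin-transferred, 24 h at 37C. Dual-luciferase read: FLuc first, then NLuc after Stop&Glo, each 10 min at room temperature.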
# Potency means the concentration at half of the fitted maximal effect; tags describe the fitted curve by direction and shape.
row,SMILES,Potency
1,CCOC(=O)c1cnc2c(ccc3ccccc32)c1Nc1ccc(N(C)C)cc1,"inconclusive [phenotype inactive, partial curve]"
2,CCc1ccc(OCC2c3cc(OC)c(OC)cc3CCN2C(=O)c2ccc(S(=O)(=O)N3CCCC3)cc2)cc1 (configuration not stated),inactive
3,Cc1ccc(CNC(=O)c2ccc(CSc3nc4ccncc4n3Cc3ccc(C)cc3)cc2)cc1,"inconclusive [phenotype inactive, partial curve]"
4,COc1cccc(C(=O)Nc2ccc3nc(SCC(=O)N(C)c4ccccc4)sc3c2)c1,"inconclusive [phenotype inactive, single point]"
5,COc1cccc(N2CCN(c3ncnc4c3c(-c3ccccc3)cn4-c3cccc(C(F)(F)F)c3)CC2)c1,inactive
6,Cc1cc(C)n(-c2nc(C)c(C)c(=O)n2CC(=O)Nc2cccc([N+](=O)[O-])c2)n1,"inconclusive [phenotype inactive, single point]"
7,CCOc1ccc(S(=O)(=O)N2CCC(c3ccncc3)CC2)cc1,inactive
8,COc1cccc(NC(=O)CSc2c3c(nc4ccccc24)CCCC3)c1,"inconclusive [phenotype inactive, partial curve]"
9,Cc1cccc(OCCCn2c(CCNC(=O)C3CCCCC3)nc3ccccc32)c1,"inconclusive [phenotype inactive, partial curve]"
10,Cc1ccc(C)c(N2CCN(C(=O)C(CC(C)C)NS(=O)(=O)c3ccc4nc(C)sc4c3)CC2)c1 (configuration not stated),"inconclusive [phenotype inactive, single point]"
11,Cc1c(Cl)cccc1NC(=O)C1CCN(c2nc3ccccc3[nH]2)CC1,inactive
12,CCc1ccc(CNC(=O)c2cnc3c(C)cccn3c2=O)cc1,inactive
13,CCOC(=O)c1ccccc1NC(=O)c1cc2ccc3cccnc3c2[nH]1,"inconclusive [phenotype inactive, single point]"
14,O=C(CN1C(=O)c2cccc3cccc1c23)Nc1ccccc1Br,inactive
15,CCCCNS(=O)(=O)c1ccc2nc(-c3cccnc3)cc(C(=O)NC(C)C)c2c1,"inconclusive [phenotype inactive, partial curve]"
16,CCOc1ccc(OCC(=O)NCCS(=O)(=O)N2CCN(c3cccc(Cl)c3)CC2)cc1,"inconclusive [phenotype inactive, single point]"
17,CCn1nnc2cc(C(=O)Nc3cc(C)ccc3C)ccc21,inactive
18,CCCCN(CC)CCCNC(=O)c1cn(CC)c2ccc(S(=O)(=O)N3CCc4ccccc4C3)cc2c1=O,"inconclusive [phenotype inactive, partial curve]"
19,CCCNC(=O)c1cnn(-c2ccc(C)c(C)c2)c1C1CCN(C(=O)OC(C)(C)C)CC1,inactive
20,CCN(CC)c1nn2c(=O)c(C(=O)NCCc3ccccc3C)cnc2s1,"inconclusive [phenotype inactive, single point]"
21,CCOc1cc2c(cc1OCC)C(CC(=O)O)N(C(=O)Nc1ccc(Br)c(C)c1)CC2 (configuration not stated),"inconclusive [phenotype inactive, single point]"

row,SMILES,Potency
1,Cc1ccc(C(=O)Nc2ccc(C(=O)O)cc2)cc1S(=O)(=O)N1CCC(C)CC1,inactive
2,Cc1cccc(CN2CCN(CC(=O)NCCc3ccc(Cl)cc3)C2=O)c1,"inconclusive [phenotype inactive, single point]"
3,CCOc1ccc(N(Cc2ccccc2)C(=O)c2nc(SC)ncc2Cl)cc1,"inconclusive [phenotype inactive, single point]"
4,Cn1c(=O)c2c(nc(CN3CCN(c4ccccc4F)CC3)n2Cc2ccc(F)cc2)n(C)c1=O,"inconclusive [phenotype inactive, single point]"
5,COc1ccc(C2C=C(c3ccc(Cl)cc3)Nc3nc(-c4ccc(Cl)cc4)nn32)cc1 (configuration not stated),"inconclusive [phenotype inactive, single point]"
6,CCOC(=O)c1cnn(-c2ccc(C(=O)Nc3ccc(C(C)=O)cc3)cc2)c1N,inactive
7,COc1ccc(CNC(=O)C(C)n2nc(C)c3c(C)n(-c4ccccc4)nc3c2=O)c(OC)c1 (configuration not stated),"inconclusive [phenotype inactive, single point]"
8,CCc1cccc(C)c1NC(=O)CN1C(=O)C2(SCC(=O)N2c2cccc(F)c2)c2ccccc21 (configuration not stated),"inconclusive [phenotype inactive, single point]"
9,COc1cccc(C(=O)N2c3ncnn3C3(CCCCC3)[C@@H]3CCCC[C@@H]32)c1,"inconclusive [phenotype inactive, single point]"
10,COc1cccc(Cc2nc3ccccc3nc2SCC(=O)N2CCCc3ccccc32)c1,"inconclusive [phenotype inactive, partial curve, poor fit]"
11,CCCOc1ccc(CNC(=O)c2[nH]c3cc(OC)ccc3c2Sc2ccccc2)cc1,"inconclusive [phenotype inactive, single point]"
12,Cc1ccc(/C=C/C(=O)Nc2ccccc2C(N)=O)o1,inactive
13,Cc1ccc(C(=O)Nc2c(C)nc3ccccn3c2=O)cc1C,inactive
14,CCN(CC)C(=O)CSc1nc(-c2ccc(C)cc2)nc2c1Cc1c(CO)cnc(C)c1O2,"inconclusive [phenotype inactive, single point]"
15,Cc1ccc(CN(Cc2ccco2)C(=O)COc2ccc(C)c(C)c2)cc1,inactive
16,COc1ccc(C(=O)NCC(c2ccc(N(C)C)cc2)N2CCc3ccccc32)cc1OC (configuration not stated),"inconclusive [phenotype inactive, partial curve]"
17,CCN(c1ccccc1)S(=O)(=O)c1c(-c2ccc(C)cc2)csc1C(=O)OC,"inconclusive [phenotype inactive, single point]"
18,COc1ccc(/C=C/C(=O)Nc2ccc3nc(N4CCC(C)CC4)cc(C)c3c2)cc1,inactive
19,COCCNc1nc(NCc2cccc(Cl)c2)c2cnn(C)c2n1,"inconclusive [phenotype inactive, single point]"
20,CCOc1ccc(NC(=O)CSC2=Nc3ccccc3C3=NC(CC(=O)NCc4ccc5c(c4)OCO5)C(=O)N23)cc1 (configuration not stated),inactive
21,CSc1ccc(CCNC(=O)Cn2ncc3c(=O)oc4ccc(C)cc4c32)cc1,inactive

row,SMILES,Potency
1,COc1ccc2oc(=O)cc(CN3CCN(c4ccccc4F)CC3)c2c1,"inconclusive [phenotype inactive, single point]"
2,Cc1ccc(C)c(NC(=O)Cn2c(=O)n(CCC(=O)NCc3ccc4c(c3)OCO4)c(=O)c3ccccc32)c1,inactive
3,CCOC(=O)c1cccc(Nc2ccc3cc(S(=O)(=O)N4CCCCC4)ccc3n2)c1,"inconclusive [phenotype inactive, single point]"
4,COc1ccc(Cn2c(CCC(=O)Nc3ccc(C)cc3C)nc3cccnc32)cc1,inactive
5,CCOc1ccc2nc(N(Cc3cccnc3)C(=O)C3CCCCC3)sc2c1,"inconclusive [phenotype inactive, single point]"
6,COc1ccc(-n2cnc3cc(C(=O)NC4CCCCCC4)ccc32)cc1,inactive
7,COc1cccc(N2CCN(C(=O)c3ccc(CS(=O)c4cccc(Cl)c4)o3)CC2)c1 (configuration not stated),active: 5.04 µM
8,COC(=O)c1ccccc1NC(=O)c1nc(S(=O)(=O)Cc2ccccc2F)ncc1Cl,"inconclusive [phenotype inactive, partial curve]"
9,COc1cccc(Cc2nc3ccccc3nc2SCC(=O)N2CCCCC2C)c1 (configuration not stated),"inconclusive [phenotype inactive, single point]"
10,CCN(C(=O)CN(C)S(=O)(=O)c1ccc2c(c1)n(C)c(=O)c(=O)n2C)c1cccc(C)c1,active: 6.48 µM
11,O=C(NCCc1ccccc1)C(=O)NCC(c1cccnc1)N1CCN(c2ccc(F)cc2)CC1 (configuration not stated),"inconclusive [phenotype inactive, partial curve, poor fit]"
12,Cc1c(C(=O)Nc2ccc(Br)cc2F)oc2ccc(S(=O)(=O)N3CCC4(CC3)OCCO4)cc12,"inconclusive [phenotype inactive, partial curve, poor fit]"
13,CCOc1ccccc1NC(=O)COc1cccc2c(=O)n(CCOC)ccc12,"inconclusive [phenotype inactive, partial curve]"
14,O=C(NCc1ccc(Cl)cc1)C(=O)Nc1cccc(Br)c1,active: 16 µM
15,Cc1ccc(Cl)cc1-n1nnc(-c2nsc(NC(=O)c3ccccc3Cl)n2)c1C,inactive
16,CCOC(=O)c1cc2c(=O)n3ccccc3nc2n(CC(C)C)c1=NC(=O)COc1ccc(Cl)cc1,active: 16 µM
17,CCOc1cccc2sc(N3CCN(C(=O)c4ccc5c(c4)CCCC5)CC3)nc12,"inconclusive [phenotype inactive, single point]"
18,Cc1cc(N2CCN(C)CC2)nc2ccc(NC(=O)c3ccc(C(C)(C)C)cc3)cc12,"inconclusive [phenotype inactive, single point]"
19,CC(C)CCOc1ccc(C2N=C(N)Nc3nc4ccccc4n32)cc1 (configuration not stated),"inconclusive [phenotype inactive, single point]"
20,Cc1nn(C(C)C(=O)NC2CCC(C)CC2)c(=O)c2c1sc1ccccc12 (configuration not stated),"inconclusive [phenotype inactive, single point]"
